Test results: the supplement of paper PMC8728848
The other results are listed elsewhere or left out.

Experiments:
Test in all cases: glycan array binding signal (z-score within array); higher = stronger binding
Conditions in all cases: glycan notation: IUPAC condensed, linker removed
[1] = target: Neu5Ac(a2-6)Gal(b1-4)GlcNAc(b1-2)Man(a1-3)[Man(a1-6)]Man(b1-4)GlcNAc(b1-4)GlcNAc
Procedure, shortened: (§1)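 The binding signal is a Z-score computed within each array. Data were drawn from 3228 arrays in the Consortium for Functional Glycomics database, restricted to those with a known protein sequence. Scores were averaged over arrays of the same protein sequence at different concentrations or buffers, and over linkers, and negative values can be taken as non-binding.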

[2] = target: Neu5Ac(a2-6)Gal(b1-4)GlcNAc(b1-2)Man(a1-3)[Neu5Ac(a2-3)Gal(b1-4)GlcNAc(b1-2)Man(a1-6)]Man(b1-4)GlcNAc(b1-4)GlcNAc
Procedure, shortened: as §1

[3] = target: Neu5Ac(a2-6)Gal(b1-4)GlcNAc(b1-2)Man(a1-3)[Neu5Ac(a2-6)Gal(b1-4)GlcNAc(b1-2)Man(a1-6)]Man(b1-4)GlcNAc(b1-4)GlcNAc
Procedure, shortened: as §1

[4] = target: Neu5Ac(a2-6)Gal(b1-4)GlcNAc(b1-2)Man(a1-3)[Neu5Ac(a2-6)Gal(b1-4)GlcNAc(b1-2)Man(a1-6)]Man(b1-4)GlcNAc(b1-4)[Fuc(a1-6)]GlcNAc
Procedure, shortened: as §1

[5] = target: Neu5Ac(a2-6)Gal(b1-4)GlcNAc(b1-2)Man(a1-6)Man(b1-4)GlcNAc(b1-4)GlcNAc
Procedure, shortened: as §1

[6] = target: Neu5Ac(a2-6)Gal(b1-4)GlcNAc(b1-2)Man(a1-6)[Gal(b1-4)GlcNAc(b1-2)Man(a1-3)]Man(b1-4)GlcNAc(b1-4)GlcNAc
Procedure, shortened: as §1

[7] = target: Neu5Ac(a2-6)Gal(b1-4)GlcNAc(b1-2)Man(a1-6)[GlcNAc(b1-2)Man(a1-3)]Man(b1-4)GlcNAc(b1-4)GlcNAc
Procedure, shortened: as §1

[8] = target: Neu5Ac(a2-6)Gal(b1-4)GlcNAc(b1-2)Man(a1-6)[Man(a1-3)]Man(b1-4)GlcNAc(b1-4)GlcNAc
Procedure, shortened: as §1

[9] = target: Neu5Ac(a2-6)Gal(b1-4)GlcNAc(b1-2)[Neu5Ac(a2-6)Gal(b1-4)GlcNAc(b1-4)]Man(a1-3)[GlcNAc(b1-4)][Neu5Ac(a2-6)Gal(b1-4)GlcNAc(b1-2)[Neu5Ac(a2-6)Gal(b1-4)GlcNAc(b1-6)]Man(a1-6)]Man(b1-4)GlcNAc(b1-4)GlcNAc
Procedure, shortened: as §1

[10] = target: Neu5Ac(a2-6)Gal(b1-4)GlcNAc(b1-2)[Neu5Ac(a2-6)Gal(b1-4)GlcNAc(b1-4)]Man(a1-3)[GlcNAc(b1-4)][Neu5Ac(a2-6)Gal(b1-4)GlcNAc(b1-4)Man(a1-6)]Man(b1-4)GlcNAc(b1-4)GlcNAc
Procedure, shortened: as §1

[11] = target: Neu5Ac(a2-6)Gal(b1-4)GlcNAc(b1-2)[Neu5Ac(a2-6)Gal(b1-4)GlcNAc(b1-6)]Man(a1-6)[Neu5Ac(a2-6)Gal(b1-4)GlcNAc(b1-2)Man(a1-3)][GlcNAc(b1-4)]Man(b1-4)GlcNAc(b1-4)GlcNAc
Procedure, shortened: as §1

[12] = target: Neu5Ac(a2-6)Gal(b1-4)GlcNAc(b1-3)Gal(b1-3)GlcNAc
Procedure, shortened: as §1

[13] = target: Neu5Ac(a2-6)Gal(b1-4)GlcNAc(b1-3)Gal(b1-4)GlcNAc
Procedure, shortened: as §1

[14] = target: Neu5Ac(a2-6)Gal(b1-4)GlcNAc(b1-3)Gal(b1-4)GlcNAc(b1-2)Man(a1-3)[Neu5Ac(a2-6)Gal(b1-4)GlcNAc(b1-3)Gal(b1-4)GlcNAc(b1-2)Man(a1-6)]GalNAc
Procedure, shortened: as §1

[15] = target: Neu5Ac(a2-6)Gal(b1-4)GlcNAc(b1-3)Gal(b1-4)GlcNAc(b1-3)Gal(b1-4)GlcNAc
Procedure, shortened: as §1

[16] = target: Neu5Ac(a2-6)Gal(b1-4)GlcNAc(b1-3)Gal(b1-4)GlcNAc(b1-3)Gal(b1-4)GlcNAc(b1-2)Man(a1-3)[Neu5Ac(a2-6)Gal(b1-4)GlcNAc(b1-3)Gal(b1-4)GlcNAc(b1-3)Gal(b1-4)GlcNAc(b1-2)Man(a1-6)]GalNAc
Procedure, shortened: as §1

[17] = target: Neu5Ac(a2-6)Gal(b1-4)GlcNAc(b1-3)Gal(b1-4)GlcNAc(b1-3)GalNAc
Procedure, shortened: as §1

[18] = target: Neu5Ac(a2-6)Gal(b1-4)GlcNAc(b1-3)Gal(b1-4)GlcNAc(b1-3)[Neu5Ac(a2-6)Gal(b1-4)GlcNAc(b1-3)Gal(b1-4)GlcNAc(b1-6)]GalNAc
Procedure, shortened: as §1

[19] = target: Neu5Ac(a2-6)Gal(b1-4)GlcNAc(b1-3)Gal(b1-4)GlcNAc(b1-6)[Gal(b1-3)]GalNAc
Procedure, shortened: as §1

[20] = target: Neu5Ac(a2-6)Gal(b1-4)GlcNAc(b1-3)Gal(b1-4)[Fuc(a1-3)]GlcNAc(b1-3)Gal(b1-4)[Fuc(a1-3)]GlcNAc
Procedure, shortened: as §1

[21] = target: Neu5Ac(a2-6)Gal(b1-4)GlcNAc(b1-3)GalNAc
Procedure, shortened: as §1

[22] = target: Neu5Ac(a2-6)Gal(b1-4)GlcNAc(b1-3)[Neu5Ac(a2-6)Gal(b1-4)GlcNAc(b1-6)]GalNAc
Procedure, shortened: as §1

[23] = target: Neu5Ac(a2-6)Gal(b1-4)GlcNAc(b1-6)GalNAc
Procedure, shortened: as §1

[24] = target: Neu5Ac(a2-6)Gal(b1-4)GlcNAc(b1-6)[Gal(b1-3)GlcNAc(b1-3)]Gal(b1-4)Glc
Procedure, shortened: as §1

[25] = target: Neu5Ac(a2-6)Gal(b1-4)GlcNAc(b1-6)[Gal(b1-3)]GalNAc
Procedure, shortened: as §1

[26] = target: Neu5Ac(a2-6)Gal(b1-4)GlcNAc6S
Procedure, shortened: as §1

Neu5Ac(a2-6)GalNAc = target: Neu5Ac(a2-6)GalNAc
Procedure, shortened: as §1

[27] = target: Neu5Ac(a2-6)GalNAc(b1-4)GlcNAc
Procedure, shortened: as §1

[28] = target: Neu5Ac(a2-6)GalNAc(b1-4)GlcNAc6S
Procedure, shortened: as §1

[29] = target: Neu5Ac(a2-6)GlcNAc(b1-4)GlcNAc
Procedure, shortened: as §1

B1: rEtpA (Escherichia coli) (protein)
chain: MNRIYKLKFDKRRNELVVVSEITTGVGNAKATGSVEGEKSPRRGVRAMALSLLSGMMIMAHPAMSANLPTGGQIVAGSGSIQTPSGNQMNIHQNSQNMVANWNSFDIGKGNTVQFDQPSSSAVALNRVVGGGESQIMGNLKANGQVFLVNPNGVLFGEGASVSTSGFVASTRDIKNDDFMNRRYTFSGGQKAGAAIVNQGELTTNAGGYIVLAADRVSNSGTIRTPGGKTVLAASERITLQLDNGGLMSVQVTGDVVNALVENRGLVSARDGQVYLTALGRGMLMNTVLNVSGVVEASGMHRQDGNIVLDGGDSGVVHLSGTLQADNASGQGGKVVVQGKNILLDKGSNITATGGQGGGEVYVGGGWQGKDSNIRNADKVVMQGGARIDVSATQQGNGGTAVLWSDSYTNFHGQISAKGGETGGNGGRVETSSHGNLQAFGTVSASAKKGKAGNWLLDSADITIVNGSNVSKTETTQSPPHTQFAPTAAGSAVSNTSINNRLNNGTSVTILTHRTRTGTAQGGNITVNAAINKSNGSDVNLTLQAGGNITVNNSITSTEGKLNVNLSGARTSNGSITISNNANITTNGGDITVGTTNTSNRVNISINNTTLNASNGNIQLTGTGTDSGILFAGNNRLTASNIALTGNSTSGNAINLTGTATLNATNNITLTGSSTSGNAINLKGNNTLTASNITLTGESTSGNAINLTDTTGTTTLNATNNITMQGTRVQIKHSNITAGNFALNATVAGSEISNTTLTATNNINLAAKTNSASSGVYLKDARITSTNGSITANGTATANGKATHLDGNVTLNASNGRIKLTGNGHGSASGILFAGNNRLTASNIALTGNSTSGNAINLTGTATLNATNDITLTGSSTSGNAINLTGTATLNATNNITLTGSSTSGNAINLKGNNTLTASNITLTGESTSGNAINLTDTTGTTTLNATNNITMQGTRVQIKHSNITAGNFALNATVAGSEISNTTLTATNNINLAAKTNSASSGVYLKDARITSTNGSITANGTATANGKATHLDGNVTLNASNGRIKLTGNGHGSASGILFAGNNRLTASNIALTGNSTSGNAINLTGTATLNATNDITLTGSSTSGNAINLTGTATLNATNNITLTGSSTSGNAINLKGNNTLTASNITLTGESTSGNAINLTDTTGTTTLNATNNITMQGTRVQIKHSNITAGNFALNATVAGSEISNTTLTATNNINLAAKTNSASSGVYLKDARITSTNGSITANGTATANGKATHLDGNVTLNASNGRIKLTGNGHGSASGILFAGNNRLTASNIALTGNSTSGNAINLTGTATLNATNDITLTGSSTSGNAINLTGTATLNATNNITLTGSSTSGNAINLKGNNTLTASNITLTGESTSGNAINLTDTTGTTTLNATNNITMQGTRVQIKHSNITAGNFALNATVAGSEISNTTLTATNNINLAAKTNSASSGVYLKDARITSTNGSITTNGTATANGKATHLDGNVTLNASNGRIKLTGNGHGSASGILFAGNNRLTASNIALTGNSTSGNAINLTGTATLNATNDITLTGSSTSGNAINLTGTATLNATNNITLTGSSTSGNAINLKGNNTLTASNITLTGESTSGNAINLTDTTGTTTLNATNNITMQGTRVQIKHSNITAGNFALNATVAGSEISNTTLTATNNINLAAKTNSASSGVYLKDARITSTNGSITANGTAPANDNATYLDGNVTLNASNGSIKLTGNGNGSTSGILFAGNNTLTASNITLTGNSEVYWQKLGPEQKLISEEDLNSAVDHHHHHH
glycan array binding signal (z-score) [1]: 0.13 | glycan array binding signal (z-score) [2]: -0.347 | glycan array binding signal (z-score) [3]: -0.353 | glycan array binding signal (z-score) [4]: -0.306 | glycan array binding signal (z-score) [5]: 0.277 | glycan array binding signal (z-score) [6]: -0.105 | glycan array binding signal (z-score) [7]: -0.361 | glycan array binding signal (z-score) [8]: -0.06 | glycan array binding signal (z-score) [9]: -0.271 | glycan array binding signal (z-score) [10]: -0.063 | glycan array binding signal (z-score) [11]: -0.021 | glycan array binding signal (z-score) [12]: -0.361 | glycan array binding signal (z-score) [13]: -0.418 | glycan array binding signal (z-score) [14]: -0.38 | glycan array binding signal (z-score) [15]: -0.428 | glycan array binding signal (z-score) [16]: -0.152 | glycan array binding signal (z-score) [17]: -0.379 | glycan array binding signal (z-score) [18]: -0.373 | glycan array binding signal (z-score) [19]: -0.333 | glycan array binding signal (z-score) [20]: -0.276 | glycan array binding signal (z-score) [21]: -0.267 | glycan array binding signal (z-score) [22]: -0.153 | glycan array binding signal (z-score) [23]: -0.19 | glycan array binding signal (z-score) [24]: -0.399 | glycan array binding signal (z-score) [25]: -0.332 | glycan array binding signal (z-score) [26]: -0.451 | glycan array binding signal (z-score) (Neu5Ac(a2-6)GalNAc): -0.37 | glycan array binding signal (z-score) [27]: -0.424 | glycan array binding signal (z-score) [28]: -0.282 | glycan array binding signal (z-score) [29]: -0.251
